In paper PMC4383008:
Numbering of substitutions follows the chain as printed. These are yes or no findings as the source states them, for the method shown. Binding seen in cells or lysates may run through a third protein. Some entries that bind do so weakly or less than the wild type. For some assays here: Sequences can lack the tags named with a protein.

How the values were obtained:
[1] = target: GluA2 AMPAR subunit, endogenous in mouse brain lysate (mouse (endogenous in mouse brain)), P23819; experiment: co-IP; wild-type mouse brain lysate (HBST buffer), in presence of 3 mM GTPγS; precipitated with anti-GluA2, 24 h at 4 °C; conditions: remark: other sources report otherwise
myc-PICK1 = myc-PICK1 (UniProt Q9EP80); experiment: co-IP; lysate (CHAPS buffer) of HEK293T cells co-expressing flag-RAB39B and myc-PICK1, in presence of 3 mM GTPγS; precipitated with anti-myc, 3 h at 4 °C
GST-PICK1 [2] = target: GST-PICK1 (UniProt Q9EP80); experiment: pull-down; 80 μg GST-PICK1 on glutathione-Sepharose 4B beads, 16 mg mouse brain lysate in HKT buffer, 3 h at 4 °C; only the target purified
GST-PICK1 [3] = target: GST-PICK1 (UniProt Q9EP80); experiment: pull-down; 80 μg GST-PICK1 on glutathione-Sepharose 4B beads, 2 mg lysate (RIPA buffer) of COS7 cells expressing flag-RAB39B constructs, 3 h at 4 °C; only the target purified

B1: PICK1, endogenous in mouse brain lysate, Q62083 1-416 (protein)
chain: MFADLDYDIEEDKLGIPTVPGKVTLQKDAQNLIGISIGGGAQYCPCLYIVQVFDNTPAALDGTVAAGDEITGVNGKSIKGKTKVEVAKMIQEVKGEVTIHYNKLQADPKQGMSLDIVLKKVKHRLVENMSSGTADALGLSRAILCNDGLVKRLEELERTAELYKGMTEHTKNLLRAFYELSQTHRAFGDVFSVIGVREPQPAASEAFVKFADAHRSIEKFGIRLLKTIKPMLTDLNTYLNKAIPDTRLTIKKYLDVKFEYLSYCLKVKEMDDEEYSCIGPRRALYRVSTGNYEYRLILRCRQEARARFSQMRKDVLEKMELLDQKHVQDIVFQLQRFVSTMSKYYNDCYAVLQDADVFPIEVDLAHTTLAYGPNQGSFTDGEEEDEEEEDGAAREVSKDACGATGPTDKGGSWCDS
For B1, the binding [1] was “binds”.

B2: flag-RAB39B (in HEK293T cells) (protein, UniProt Q8BHC1 1-213)
chain: MEAIWLYQFRLIVIGDSTVGKSCLIRRFTEGRFAQVSDPTVGVDFFSRLVEIEPGKRIKLQIWDTAGQERFRSITRAYYRNSVGGLLLFDITNRRSFQNVHEWLEETKVHVQPYQIVFVLVGHKCDLDTQRQVTRHEAEKLAAAYGMKYIETSARDAINVEKAFTDLTRDIYELVKRGEITIQEGWEGVKSGFVPNVVHSSEEVIKSERRCLC
B2 was tested, and the binding (myc-PICK1) was “binds”.

B3: RAB39B, endogenous in mouse brain lysate (protein, UniProt Q8BHC1 1-213)
chain: B2 chain
In the case of B3, the binding (GST-PICK1 [2]) is reported as “binds”.

B4: flag-ΔER RAB39B (protein, UniProt Q8BHC1)
chain: MEAIWLYQFRLIVIGDSTVGKSCLIRRFTEGRFAVEIEPGKRIKLQIWDTAGQERFRSITRAYYRNSVGGLLLFDITNRRSFQNVHEWLEETKVHVQPYQIVFVLVGHKCDLDTQRQVTRHEAEKLAAAYGMKYIETSARDAINVEKAFTDLTRDIYELVKRGEITIQEGWEGVKSGFVPNVVHSSEEVIKSERRCLC
With B4 the binding (GST-PICK1 [3]) was “no binding”.

B5: flag-D44F45AA RAB39B (protein, UniProt Q8BHC1 1-213)
chain: B2 chain with D44A, F45A
For B5, the binding (GST-PICK1 [3]) was “no binding”.
